Laboratory results reported in PubChem BioAssay AID463173 (ICCB-Longwood Screening Facility, Harvard Medical School, 2010).
Screen size: about 52,000 compounds; about 1,700 (3.3%) were called active. Cut-off read from the data, not from the text of the source: active = survival mostly below about 52% (no sharp cut-off); inactive = mostly above about 56%. The list shows a part of the results.

These molecules were tested on Wild type (assay: S. aureus survival, RN4220 and DeltatarO strains – OD600, teichoic acid synthesis inhibitors, primary screen (AID 463173)). Details: S. aureus RN4220 wild type/DeltatarO growth, OD600, 18 h, hits give low values, screened at 18.75 µg/mL (by protocol).

Compound	survival
CCOc1ccc(-c2nc(CSCC(=O)NCCc3ccccc3)c(C)o2)cc1	inactive: 65%
COc1ccc(N2C(=O)CS(=O)(=O)C23C(=O)N(Cc2ccccc2)c2ccccc23)cc1 (stereo unspecified)	inactive: 71%
COc1cccc(-c2nc(S(=O)(=O)c3ccc(C)cc3)c(NCc3ccccc3)o2)c1	inactive: 141%
COc1ccc(CN=C(N)N=C(N)N)cc1	inactive: 114%
Cc1cc(C)cc(NC(=O)Cn2c(=O)n(CCC(C)C)c(=O)c3cccnc32)c1	inactive: 91%
CCc1ccc2oc(C(=O)N(Cc3cccc(Cl)c3)Cc3ccco3)c(C)c2c1	inactive: 84%
CCN(CC)C(C(=O)O)c1ccccc1 (stereo unspecified)	inactive: 97%
Cn1c(=O)cc(SCC(=O)NCCc2ccc(Cl)cc2)c2cc(Cl)ccc21	inactive: 70%
COc1cccc(CNC(=O)CCCn2c(=O)c3cccn3c3ccc(F)cc32)c1OC	inactive: 58%
O=C(Cn1c2ncccc2c(=O)n1-c1ccccc1)Nc1cccc(C(F)(F)F)c1	inactive: 74%
Cc1ccc(C)c(NC(=O)Cn2cc(S(=O)(=O)N3CCCC3)c(S(=O)(=O)N3CCCC3)c2)c1	inactive: 67%
Cc1cccc(NC(=O)CSc2nc(C)cc(C)c2C(=O)Nc2ccc(Cl)cc2)c1	inactive: 86%
CCc1nn2c(=O)cc(COC(=O)c3cccc(NC(=O)COc4ccccc4F)c3)nc2s1	inactive: 124%
COc1ccc(Cl)cc1NC(=O)c1cc(=O)c2cc(C)cc(C)c2o1	inactive: 87%
CCCC(c1nnnn1C(C)(C)C)N(Cc1ccco1)Cc1cc2ccc(C)cc2[nH]c1=O (stereo unspecified)	inactive: 99%
CCc1nnc(SC(CC)C(=O)NCCOC)c2cc3occc3n12 (stereo unspecified)	inactive: 105%
CCc1cccc(NC(=O)Cn2c(=O)n(Cc3ccccc3)c(=O)c3c(C)c(C(=O)N(C)C)sc32)c1	inactive: 78%
CCOc1ccccc1N(C)C(=O)c1cc(S(=O)(=O)NCc2ccc(C)cc2)ccc1F	inactive: 119%
CN1CCN(C(=O)c2cnn(-c3ccccc3)c2C2CCN(C(=O)OC(C)(C)C)CC2)CC1	inactive: 136%

Compound	survival
COc1ccc(-c2nc3ccccc3o2)cc1NC(=O)COc1c(C)cc(Cl)cc1Cl	inactive: 75%
Cc1ccc(CCNC(=O)Cn2ncc3c(=O)oc4ccccc4c32)cc1	inactive: 137%
Cc1ccccc1-c1nc(CS(=O)(=O)CC(=O)Nc2c(C)cccc2C)c(C)o1	inactive: 143%
CCc1ccc2c(c1)c(=O)c(S(=O)(=O)c1ccccc1)cn2CC(=O)Nc1cc(C)ccc1C	inactive: 82%
COc1cc(NC(=O)CN(C)S(=O)(=O)c2ccc3c(c2)CCCC(=O)N3)cc(OC)c1OC	inactive: 81%
CCC(=O)C1=C(c2cccc([N+](=O)[O-])c2)N(C(=O)CC)n2c(nnc2C2CCCCC2)S1	inactive: 63%
Cc1cccc(-c2nc3c4ccccc4n(CC(=O)Nc4cccc(F)c4)c(=O)n3n2)c1	inactive: 80%
O=S1(=O)N=C(SCCO)c2ccccc21	inactive: 112%
Cc1ccc(NC(=O)c2nc[nH]c2C(=O)N2CCCCC2)c(C(=O)c2ccccc2)c1	inactive: 110%
CC(C)(C)OC(=O)N1CCC(c2c(C(=O)N3CCN(c4ccccc4F)CC3)cnn2C(C)(C)C)CC1	inactive: 54%
CCOC(=O)C1CCN(c2csc3ccc(C)cc3c2=O)CC1	inactive: 94%
COC(=O)c1cc2sc(C)cc2n1Cc1nc(-c2cccc(Br)c2)oc1C	inactive: 81%
O=C(NCc1ccccn1)c1cc2n(n1)C(C(F)(F)F)CC(c1ccco1)N2 (stereo unspecified)	inactive: 108%
N#C/C(=C/c1ccccc1Cl)c1nc(-c2cc3ccccc3oc2=O)cs1	inactive: 82%
O=C1SCCc2c1n(Cc1ccccc1)c1ccccc21	inactive: 116%
O=C(/C=C/c1ccco1)N/C(=C\c1ccc2c(c1)OCO2)C(=O)N1CCCCCC1	inactive: 123%
COC(=O)c1cc(NC(=O)Cn2nc(-c3ccccc3)c3c(c2=O)CCCC3)cc(C(=O)OC)c1	inactive: 55%
O=C(Cn1c(=O)n(CC2CCCO2)c(=O)c2ccccc21)Nc1ccc(F)cc1F (stereo unspecified)	inactive: 87%
COc1cc(C)ccc1OCCSc1nc2ccc(NC(=O)c3ccccc3F)cc2s1	inactive: 118%

Compound	survival
Fc1ccc(NCc2ccccc2-c2nnc(-c3ccccc3Cl)o2)cc1Cl	inactive: 89%
CCc1ccc(-c2cc(C)no2)cc1S(=O)(=O)NCc1ccc(OC)cc1	inactive: 73%
COc1ccccc1CC(=O)Nc1c[nH]c(=O)[nH]c1=O	inactive: 99%
CCOc1ccc(C(c2c(O)cc(C)n(CCOC)c2=O)N2CCN(c3ccc(F)cc3)CC2)cc1 (stereo unspecified)	inactive: 70%
Cc1cccc2cc(-c3nc(-c4cccs4)no3)c(=O)oc12	inactive: 96%
Cc1sc2ncn(CC(=O)N3CCN(c4cccc(Cl)c4)CC3)c(=O)c2c1S(=O)(=O)N1CCC(C)CC1	inactive: 143%
CCN(CC)C(=O)Cn1c(=O)n(CCCCCC(=O)NCc2ccc(C)cc2)c(=O)c2sccc21	inactive: 85%
CCOc1ccc(-n2c(=O)c3c(C)c(C)sc3n(Cc3ccc(C(C)(C)C)cc3)c2=O)cc1	active: 19%
CC(=O)N1CCc2c(sc3c2c(=O)n(-c2cc(Cl)ccc2C)c(=O)n3C)C1	inactive: 119%
CCN1C(=O)Cc2cc(S(=O)(=O)N3CCOCC3)ccc21	inactive: 90%
CCOC(=O)c1cc2sccc2n1CC(=O)NC(C)C	inactive: 100%
COc1ccc(Cl)cc1NC(=O)COc1cccc2c(=O)n(C)ccc12	inactive: 70%
COC(=O)c1ccc(NC(=O)CN(C)S(=O)(=O)c2ccc3c(c2)CCCC(=O)N3)cc1	inactive: 55%
CCCCNC(=O)Cn1nc(N2CCN(c3ccccc3OC)CC2)ccc1=O	inactive: 80%
CCCCn1c(CNc2ccc(C)cc2)nnc1SCC(=O)OC	inactive: 120%
CC1=NN(c2ccc(N)cc2)C(=O)C1	inactive: 106%
COc1cccc(C(=O)N2CCc3cc(OC)c(OC)cc3C2COc2ccc3c(C)cc(=O)oc3c2)c1 (stereo unspecified)	inactive: 70%
CCn1cc(S(=O)(=O)c2cc(C)cc(C)c2)c(=O)c2cc(F)c(N3CCN(c4ccccc4)CC3)cc21	inactive: 63%
